This is one part of the list.
target: T1, MBP-FoxP1dN (Mus musculus, UniProt P58462 326-579); assay: PD-seq (MBP pull-down with sequencing); 20 mM Tris-HCl pH 7.5, 100 mM NaCl, 1.5 mM MgCl2, 0.4 uM protein, 0.1 uM dsDNA library, 30 min, room temperature, amylose pull-down; high values mean tight binding; details: protein: recombinant; tags: His6-MBP; chain copies: 2; dsDNA, one strand shown
T1 sequence: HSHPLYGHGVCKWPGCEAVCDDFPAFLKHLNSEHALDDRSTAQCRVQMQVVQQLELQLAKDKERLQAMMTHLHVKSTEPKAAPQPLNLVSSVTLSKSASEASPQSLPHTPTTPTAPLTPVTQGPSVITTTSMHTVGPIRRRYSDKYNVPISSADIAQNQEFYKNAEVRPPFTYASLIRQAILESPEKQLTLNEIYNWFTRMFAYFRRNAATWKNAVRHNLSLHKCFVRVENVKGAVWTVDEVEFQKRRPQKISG
Procedure, shortened: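 A degenerate double-stranded DNA library, filled in with Klenow, was added at 0.1 µM to 0.4 µM His6-MBP-tagged mouse FoxP3 or FoxP1 fragment lacking the N-terminus, expressed in E. coli. Incubation lasted 30 min at room temperature in Tris pH 7.5 buffer with NaCl and MgCl2, after which complexes were collected on amylose resin, washed three times, digested with proteinase K to free the DNA, barcoded by PCR and sequenced by Illumina. Binding is the pooled-replicate reads-per-million enrichment of pull-down over input.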

First: GATGATTGTTCTCCCAGCTGATGAATTCTAACCATCGAGTAAACAAATTTTCCTAATCTTTCTGTTCAAGCGCCATCTAC
Second: GATGATTGTTCTCCCAGCTGATGAATTCCCACGCTCGAGTAAACAAATTTTCCTAATCTTTCTGTTCAAGCGCCATCTAC
The binding signal of the first is higher: 0.91 RPM ratio (pull-down/input) for the first, 0.836 RPM ratio (pull-down/input) for the second.

First: GATGATTGTTCTCCCAGCTGATGAATTAGCTCATTCGAGTAAACAAATTTTCCTAATCTTTCTGTTCAAGCGCCATCTAC
Second: GATGATTGTTCTCCCAGCTGATGAATTCGAAGAATCGAGTAAACAAATTTTCCTAATCTTTCTGTTCAAGCGCCATCTAC
The binding signal of the first is lower: 0.91 RPM ratio (pull-down/input) for the first, 0.913 RPM ratio (pull-down/input) for the second.

Going from “GATGATTGTTCTCCCAGCTGATGAATTCAGGTCCTCGAGTAAACAAATTTTCCTAATCTTTCTGTTCAAGCGCCATCTAC” to “GATGATTGTTCTCCCAGCTGATGAATTTTATGGTTCGAGTAAACAAATTTTCCTAATCTTTCTGTTCAAGCGCCATCTAC”, the binding signal rises from 0.76 RPM ratio (pull-down/input) to 1.03 RPM ratio (pull-down/input).

Compared with “GATGATTGTTCTCCCAGCTGATGAATTACCCGGATCGAGTAAACAAATTTTCCTAATCTTTCTGTTCAAGCGCCATCTAC”, “GATGATTGTTCTCCCAGCTGATGAATTATATTAGTCGAGTAAACAAATTTTCCTAATCTTTCTGTTCAAGCGCCATCTAC” is higher in binding signal: 0.883 RPM ratio (pull-down/input) for the first, 1.2 RPM ratio (pull-down/input) for the second.

First: GATGATTGTTCTCCCAGCTGATGAATTCGATATATCGAGTAAACAAATTTTCCTAATCTTTCTGTTCAAGCGCCATCTAC
Second: GATGATTGTTCTCCCAGCTGATGAATTTCGTATCTCGAGTAAACAAATTTTCCTAATCTTTCTGTTCAAGCGCCATCTAC
The binding signal of the first is higher: 1.01 RPM ratio (pull-down/input) for the first, 0.911 RPM ratio (pull-down/input) for the second.

Compared with “GATGATTGTTCTCCCAGCTGATGAATTGAACCTTTCGAGTAAACAAATTTTCCTAATCTTTCTGTTCAAGCGCCATCTAC”, “GATGATTGTTCTCCCAGCTGATGAATTCGCACTGTCGAGTAAACAAATTTTCCTAATCTTTCTGTTCAAGCGCCATCTAC” is higher in binding signal: 0.867 RPM ratio (pull-down/input) for the first, 0.901 RPM ratio (pull-down/input) for the second.

Going from “GATGATTGTTCTCCCAGCTGATGAATTGGAGCACTCGAGTAAACAAATTTTCCTAATCTTTCTGTTCAAGCGCCATCTAC” to “GATGATTGTTCTCCCAGCTGATGAATTTTTAAGATCGAGTAAACAAATTTTCCTAATCTTTCTGTTCAAGCGCCATCTAC”, the binding signal rises from 0.843 RPM ratio (pull-down/input) to 0.944 RPM ratio (pull-down/input).

First: GATGATTGTTCTCCCAGCTGATGAATTTCCAAAATCGAGTAAACAAATTTTCCTAATCTTTCTGTTCAAGCGCCATCTAC
Second: GATGATTGTTCTCCCAGCTGATGAATTAGCATGTTCGAGTAAACAAATTTTCCTAATCTTTCTGTTCAAGCGCCATCTAC
The binding signal of the first is higher: 1.05 RPM ratio (pull-down/input) for the first, 0.983 RPM ratio (pull-down/input) for the second.

Compared with “GATGATTGTTCTCCCAGCTGATGAATTATAGGTCTCGAGTAAACAAATTTTCCTAATCTTTCTGTTCAAGCGCCATCTAC”, “GATGATTGTTCTCCCAGCTGATGAATTATTCACATCGAGTAAACAAATTTTCCTAATCTTTCTGTTCAAGCGCCATCTAC” is higher in binding signal: 0.808 RPM ratio (pull-down/input) for the first, 1.18 RPM ratio (pull-down/input) for the second.

Compared with “GATGATTGTTCTCCCAGCTGATGAATTGCGAGGATCGAGTAAACAAATTTTCCTAATCTTTCTGTTCAAGCGCCATCTAC”, “GATGATTGTTCTCCCAGCTGATGAATTTCGACATTCGAGTAAACAAATTTTCCTAATCTTTCTGTTCAAGCGCCATCTAC” is lower in binding signal: 1.01 RPM ratio (pull-down/input) for the first, 0.919 RPM ratio (pull-down/input) for the second.

Going from “GATGATTGTTCTCCCAGCTGATGAATTATTTTAATCGAGTAAACAAATTTTCCTAATCTTTCTGTTCAAGCGCCATCTAC” to “GATGATTGTTCTCCCAGCTGATGAATTGTCGGCGTCGAGTAAACAAATTTTCCTAATCTTTCTGTTCAAGCGCCATCTAC”, the binding signal falls from 1.28 RPM ratio (pull-down/input) to 0.938 RPM ratio (pull-down/input).

Compared with “GATGATTGTTCTCCCAGCTGATGAATTTCCCCCCTCGAGTAAACAAATTTTCCTAATCTTTCTGTTCAAGCGCCATCTAC”, “GATGATTGTTCTCCCAGCTGATGAATTCTACTAGTCGAGTAAACAAATTTTCCTAATCTTTCTGTTCAAGCGCCATCTAC” is higher in binding signal: 0.758 RPM ratio (pull-down/input) for the first, 0.87 RPM ratio (pull-down/input) for the second.

First: GATGATTGTTCTCCCAGCTGATGAATTGCTGCTGTCGAGTAAACAAATTTTCCTAATCTTTCTGTTCAAGCGCCATCTAC
Second: GATGATTGTTCTCCCAGCTGATGAATTCCTCGCTTCGAGTAAACAAATTTTCCTAATCTTTCTGTTCAAGCGCCATCTAC
The binding signal of the first is higher: 1.29 RPM ratio (pull-down/input) for the first, 0.888 RPM ratio (pull-down/input) for the second.

Going from “GATGATTGTTCTCCCAGCTGATGAATTTGTATATTCGAGTAAACAAATTTTCCTAATCTTTCTGTTCAAGCGCCATCTAC” to “GATGATTGTTCTCCCAGCTGATGAATTTGGGAACTCGAGTAAACAAATTTTCCTAATCTTTCTGTTCAAGCGCCATCTAC”, the binding signal falls from 1.71 RPM ratio (pull-down/input) to 0.858 RPM ratio (pull-down/input).

First: GATGATTGTTCTCCCAGCTGATGAATTCAACCAGTCGAGTAAACAAATTTTCCTAATCTTTCTGTTCAAGCGCCATCTAC
Second: GATGATTGTTCTCCCAGCTGATGAATTCTTGGACTCGAGTAAACAAATTTTCCTAATCTTTCTGTTCAAGCGCCATCTAC
The binding signal of the first is higher: 0.965 RPM ratio (pull-down/input) for the first, 0.824 RPM ratio (pull-down/input) for the second.

Compared with “GATGATTGTTCTCCCAGCTGATGAATTTCTAACTTCGAGTAAACAAATTTTCCTAATCTTTCTGTTCAAGCGCCATCTAC”, “GATGATTGTTCTCCCAGCTGATGAATTCAGTACCTCGAGTAAACAAATTTTCCTAATCTTTCTGTTCAAGCGCCATCTAC” is lower in binding signal: 0.867 RPM ratio (pull-down/input) for the first, 0.838 RPM ratio (pull-down/input) for the second.

First: GATGATTGTTCTCCCAGCTGATGAATTATGCCGTTCGAGTAAACAAATTTTCCTAATCTTTCTGTTCAAGCGCCATCTAC
Second: GATGATTGTTCTCCCAGCTGATGAATTCCATCGGTCGAGTAAACAAATTTTCCTAATCTTTCTGTTCAAGCGCCATCTAC
The binding signal of the first is higher: 1.03 RPM ratio (pull-down/input) for the first, 0.763 RPM ratio (pull-down/input) for the second.

Compared with “GATGATTGTTCTCCCAGCTGATGAATTGTTGCCGTCGAGTAAACAAATTTTCCTAATCTTTCTGTTCAAGCGCCATCTAC”, “GATGATTGTTCTCCCAGCTGATGAATTGTCTGCTTCGAGTAAACAAATTTTCCTAATCTTTCTGTTCAAGCGCCATCTAC” is lower in binding signal: 1.3 RPM ratio (pull-down/input) for the first, 0.996 RPM ratio (pull-down/input) for the second.

Compared with “GATGATTGTTCTCCCAGCTGATGAATTAAGTTCCTCGAGTAAACAAATTTTCCTAATCTTTCTGTTCAAGCGCCATCTAC”, “GATGATTGTTCTCCCAGCTGATGAATTATCGTTGTCGAGTAAACAAATTTTCCTAATCTTTCTGTTCAAGCGCCATCTAC” is higher in binding signal: 0.866 RPM ratio (pull-down/input) for the first, 1.2 RPM ratio (pull-down/input) for the second.

Going from “GATGATTGTTCTCCCAGCTGATGAATTCACGCGCTCGAGTAAACAAATTTTCCTAATCTTTCTGTTCAAGCGCCATCTAC” to “GATGATTGTTCTCCCAGCTGATGAATTAGCTACATCGAGTAAACAAATTTTCCTAATCTTTCTGTTCAAGCGCCATCTAC”, the binding signal rises from 0.992 RPM ratio (pull-down/input) to 1.1 RPM ratio (pull-down/input).
